# Test results reported in PubChem BioAssay AID360 (National Center for Advancing Translational Sciences (NCATS), 2006).
# Screen size: about 48,000 compounds; about 550 (1.1%) were called active. About 4% were inconclusive and are not listed. Cut-off read from the data, not from the text of the source: active = potency below about 15 µM; inconclusive = mostly about 16 µM to 33 µM; inactive = weaker than that. The list shows a part of the results.
# Molecular target: Lysosomal acid glucosylceramidase (Homo sapiens) (UniProt P04062)
# Assay: Glucocerebrosidase;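 note: the screen sought inhibitors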
# Conditions: purified enzyme, resorufin glucoside fluorescence (screen aimed at inhibitors), 20 min
# Summary of the method: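 Compounds titrated against 0.2 nM normal enzyme, 30 uM resorufin beta-D-glucopyranoside substrate, citrate/phosphate buffer with taurocholate and tween-20, pH 5.9. Reaction ran 20 min at room temperature; fluorescence (Ex 548/Em 600) gave AC50.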
# Potency is the fitted concentration of half-maximal effect.
# Sequence of UniProt P04062 (P04062 whole entry, looked up): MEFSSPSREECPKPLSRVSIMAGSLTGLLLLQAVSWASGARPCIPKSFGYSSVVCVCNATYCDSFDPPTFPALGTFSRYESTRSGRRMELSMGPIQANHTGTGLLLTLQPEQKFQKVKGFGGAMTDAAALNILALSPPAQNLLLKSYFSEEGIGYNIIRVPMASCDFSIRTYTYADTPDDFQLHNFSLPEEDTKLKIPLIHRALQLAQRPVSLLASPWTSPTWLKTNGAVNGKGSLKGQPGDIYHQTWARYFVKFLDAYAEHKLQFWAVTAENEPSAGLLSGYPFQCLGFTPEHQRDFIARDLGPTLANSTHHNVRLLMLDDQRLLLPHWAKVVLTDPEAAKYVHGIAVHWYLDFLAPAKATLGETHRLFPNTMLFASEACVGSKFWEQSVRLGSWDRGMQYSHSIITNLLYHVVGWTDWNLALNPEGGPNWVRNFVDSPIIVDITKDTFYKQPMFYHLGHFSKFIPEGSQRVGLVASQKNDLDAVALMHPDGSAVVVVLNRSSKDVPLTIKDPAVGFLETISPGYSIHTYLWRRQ
row,Compound,Potency
1,Clc1ccc(Cl)c2sc(N3CCOCC3)nc12,inactive: > 76.9 µM
2,O=C(NCCO)c1cc2ccccc2c(=O)s1,inactive
3,CC(Oc1ccccc1)C(=O)Nc1ccc(C(N)=O)cc1 (stereo not given),inactive: > 76.9 µM
4,C=CCn1c(SCC(=O)Nc2ccc(NC(=O)c3ccco3)c(OC)c2)nnc1-c1ccncc1,inactive: > 76.9 µM
5,Cc1ccc(-n2nnnc2SCC(=O)c2cc(C)n(-c3cc(C)on3)c2C)cc1,inactive: > 76.9 µM
6,Cc1cc(C)n(-c2nc3c(c(=O)[nH]c(=O)n3C)n2CC(O)c2ccccc2)n1 (stereo not given),inactive: > 76.9 µM
7,CCOC(=O)N1CCC(NC(=O)CCC(=O)c2ccccc2)CC1,inactive: > 76.9 µM
8,COc1cc2nc(COc3ccc(C#N)cc3)n(CC#N)c(=O)c2cc1OC,inactive: > 76.9 µM
9,COc1ccc(C2=NOC(C(=O)N3CCCc4ccccc43)C2)cc1 (stereo not given),inactive: > 76.9 µM
10,CC(=O)c1ncnn1CC(=O)c1ccc(Cl)cc1Cl,inactive: > 76.9 µM
11,COc1cccc(C(=O)OCn2nnc3ccccc3c2=O)c1,inactive: > 76.9 µM
12,CCCCNC(=O)C(C#N)c1nc2ccccc2nc1N1CCCC1 (stereo not given),inactive: > 76.9 µM
13,CS(=O)(=O)c1ccc2nc(NC(=O)CCC(=O)c3cccs3)sc2c1,inactive: > 76.9 µM
14,COc1ccccc1-n1cnnc1SCC(=O)c1ccc[nH]1,inactive: > 76.9 µM
15,C=CCC1(O)C(=O)Nc2ccccc21 (stereo not given),inactive: > 76.9 µM
16,COc1ccc2c(c1)CCc1c-2n[nH]c1C(=O)O,inactive: > 76.9 µM
17,COC(=O)c1cccc(COC(=O)CNC(=O)c2ccco2)c1,inactive: > 76.9 µM
18,CCOC(=O)c1cc(-c2nnc(-c3cc(OC)c(OC)c(OC)c3)o2)c(C)nc1C,inactive: > 76.9 µM
19,CC(C)OCC(O)CN1CCN(CC(O)COc2ccc3c(c2)OCO3)CC1 (stereo not given),inactive: > 76.9 µM
20,COc1ccc(NS(=O)(=O)c2ccc(O)c(C(=O)OCC(=O)N3CC(C)OC(C)C3)c2)cc1 (stereo not given),inactive: > 76.9 µM
21,COc1ccccc1-c1noc(CCC(=O)Nc2cc(C(F)(F)F)ccc2Cl)n1,inactive: > 76.9 µM
22,O=C1COc2ccc(C(=O)CSc3nnnn3-c3ccccc3)cc2N1,inactive
23,CCOCC(=O)Nc1c(C(=O)OCC)oc2ccccc12,inactive: > 76.9 µM

row,Compound,Potency
1,COc1cc(NC(=O)NCc2ccncc2)cc(OC)c1OC,inactive: > 76.9 µM
2,COc1cc(NC(=O)NCCN2CCN(c3ccc(Cl)cc3)CC2)ccc1C,inactive: > 76.9 µM
3,COc1cc2c(C(=O)NCCCN3CC(C)CC(C)C3)cn(CC(C)C)c(=O)c2cc1OC (stereo not given),inactive: > 76.9 µM
4,COc1ccc(CCNC(=O)Cn2c(=O)cnc3ccccc32)cc1,inactive: > 76.9 µM
5,O=C1c2oc3ccccc3c(=O)c2C(c2ccc(Br)cc2)N1c1ncccn1 (stereo not given),inactive: > 76.9 µM
6,O=C(CSc1nnc(-c2ccccc2)o1)c1nnc(-c2ccccc2)o1,inactive: > 76.9 µM
7,COc1ccc(S(=O)(=O)N2CCCN(CC(=O)C(C)(C)C)CC2)cc1,inactive: > 76.9 µM
8,OC(COc1ccc2c(c1)CCC2)Cn1cnc2ccccc21 (stereo not given),inactive
9,Cc1nc2ccc(-n3ccc(=O)cc3)cc2s1,inactive: > 76.9 µM
10,CCOCCCNS(=O)(=O)c1ccc2c(c1)oc(=O)n2CC(=O)OCC,inactive: > 76.9 µM
11,COC(=O)c1ccc2c(c1)NC1=C(C(=O)CC(C)(C)C1)C(c1ccncc1)N2 (stereo not given),inactive: > 76.9 µM
12,c1ccc(-c2cc(CSc3nc4ccccc4[nH]3)on2)cc1,inactive: > 76.9 µM
13,Cc1cc(C)c2c(N)c(S(=O)(=O)c3ccccc3)sc2n1,inactive: > 76.9 µM
14,COc1ccc(S(=O)(=O)NCc2csc(C)n2)cc1,inactive: > 76.9 µM
15,O=C(CNCC1CCCO1)Nc1ccccc1N1CCOCC1 (stereo not given),inactive: > 76.9 µM
16,O=C1C2C3C=CC(C3)C2C(=O)N1c1nccs1 (stereo not given),inactive: > 76.9 µM
17,CCN(CC)c1ccc(NC(=O)CN2CCN(CC(=O)Nc3ccccc3F)CC2)cc1,inactive: > 76.9 µM
18,Cc1sc2ncnc(SC(C)C#N)c2c1C (stereo not given),inactive: > 76.9 µM
19,O=C(c1ccccc1Cl)N1CCc2ccccc2C1,inactive: > 76.9 µM
20,CCc1nnc(NC(=O)c2ccc(COc3ccc(C)cc3)o2)s1,inactive: > 76.9 µM
21,O=C(CSc1nnc(Cn2c(=O)sc3ccccc32)n1CCc1ccccc1)N1CCOCC1,inactive: > 76.9 µM
22,O=C(NCc1ccc2c(c1)OCO2)c1ccncc1,inactive: > 76.9 µM
23,CC(C)(C)NC(=O)NC(=O)COC(=O)c1ccco1,inactive: > 76.9 µM

row,Compound,Potency
1,COc1ccc(C(=O)CSc2nnc(CNC(=O)c3ccc(OC)cc3)n2C)cc1,inactive: > 76.9 µM
2,COc1cc2nc(C3CCC3)n(NC(=O)C3CCCC(OC)C3)c(=O)c2cc1OC (stereo not given),inactive: > 76.9 µM
3,CCCS(=O)(=O)N1CCC(C(=O)NCCc2ccc(C)cc2)CC1,inactive: > 76.9 µM
4,CNS(=O)(=O)c1ccc(NC(=O)C(CCSC)NC(N)=O)cc1 (stereo not given),inactive: > 76.9 µM
5,O=C(Cn1nnc(-c2ccc(S(=O)(=O)N3CCCC3)cc2)n1)NCC1CCCO1 (stereo not given),inactive: > 76.9 µM
6,CCC1(CC)C(=O)N(C)C(=O)NC1=Nc1ccccc1,inactive: > 76.9 µM
7,O=C(CNC(=O)c1ccco1)OCC(=O)c1ccc2c(c1)CCCC2,inactive: > 76.9 µM
8,Cc1cc(=O)[nH]c(SCC2(O)C3CC4CC(C3)CC2C4)n1 (stereo not given),inactive: > 76.9 µM
9,O=C1CC(N2CCN(Cc3ccc4c(c3)OCO4)CC2)C(=O)N1c1ccccc1 (stereo not given),inactive: > 76.9 µM
10,CCCn1c(SCC(=O)NCc2cccs2)nc2c1c(=O)n(C)c(=O)n2C,inactive: > 76.9 µM
11,Nc1nnc(SCC(=O)N2CCN(c3ccccc3)CC2)s1,inactive: > 76.9 µM
12,O=C(Nc1ccc(S(=O)(=O)N2CCOCC2)cc1)c1cccs1,inactive: > 76.9 µM
13,Cc1nn(-c2cccc(C(=O)O)c2)c(C)c1Oc1ccccc1O,inactive: > 76.9 µM
14,CCn1c(N2CCN(CC(=O)c3ccc(OC)cc3)CC2)nc2ccccc21,inactive: > 76.9 µM
15,COC(=O)C(C)NC(=O)C12CC3CC(CC(C3)C1)C2 (stereo not given),inactive: > 76.9 µM
16,O=S(=O)(Nc1nc2ccccc2nc1NCCN1CCOCC1)c1cccc(Cl)c1,inactive: > 76.9 µM
17,O=C(COc1ccc(Cl)cc1)NCc1nnc(SCC(=O)N2CCCc3ccccc32)o1,inactive: > 76.9 µM
18,CC(NS(=O)(=O)c1ccc(OCC(=O)N2CCOCC2)c(Cl)c1)c1ccccc1 (stereo not given),inactive: > 76.9 µM
19,c1ccc(N=P(c2nc3ccccc3o2)(N2CCOCC2)N2CCOCC2)cc1,inactive: > 76.9 µM
20,Cc1noc(NS(=O)(=O)c2ccc(NC(=O)CCC3CCCC3)cc2)c1C,active: 15 µM
21,O=C(Nc1ccc2c(c1)OCO2)Oc1ccccc1,inactive: > 76.9 µM
22,CCn1c2ccccc2c2cc(C3C(C#N)=C(N)OC4=C3C(=O)CC(C)(C)C4)ccc21 (stereo not given),inactive: > 76.9 µM
23,COc1ccc(CN(Cc2nc3ccccc3c(=O)[nH]2)C(=O)C(C)(C)C)cc1,inactive: > 76.9 µM

row,Compound,Potency
1,CCCCCC(=O)Nc1ccc(N2CCN(CC)CC2)c(Cl)c1,active: 0.696 µM
2,Cc1cc(C(F)(F)F)nc(NCc2cccnc2)n1,inactive: > 76.9 µM
3,Cc1cc(C)c(S(=O)(=O)N(C)CC(=O)NC2CCCC2)c(C)c1,inactive: > 76.9 µM
4,Cc1ccc(-c2noc(CNCCCN(C)C)n2)cc1,inactive: > 76.9 µM
5,CCCc1cc(=O)[nH]c(SCC(=O)N(Cc2ccccc2)C(C)C)n1,inactive: > 76.9 µM
6,COCCn1c(C)cc(C(=O)CSc2nncn2-c2ccccc2)c1C,inactive: > 76.9 µM
7,O=C(Cc1c(F)c(F)c(F)c(F)c1F)OC12CC3CC(C1)C(=O)C(C3)C2,inactive: > 76.9 µM
8,COC(=O)c1ccc(COc2ccc(-c3nn[nH]n3)cc2)cc1,inactive: > 76.9 µM
9,COCCNC(=O)NC(=O)COC(=O)Cc1ccc2c(c1)OCCO2,inactive: > 76.9 µM
10,O=C(c1ccco1)N1CCN(c2nc(C(F)(F)F)nc3c2nnn3Cc2ccccc2)CC1,inactive: > 76.9 µM
11,CC1=C(C(=O)Nc2ccccc2C)C(c2ccc(C)o2)C2=C(CCCC2=O)N1 (stereo not given),inactive: > 76.9 µM
12,O=C(CNS(=O)(=O)c1ccc(Br)s1)Nc1ccc2c(c1)OCCO2,inactive: > 76.9 µM
13,CC1(C(=O)O)CC(C)(C(=O)O)CC(C)(C(=O)O)C1 (stereo not given),inactive: > 76.9 µM
14,COc1ccc(S(=O)(=O)N2CCSC2c2ccc(N)cc2)cc1 (stereo not given),inactive: > 76.9 µM
15,Cc1ccc(-c2ccc(=O)n(CCC(=O)NCc3ccccn3)n2)cc1,inactive: > 76.9 µM
16,O=C(NCCCCNC(=O)c1c(F)c(F)c(F)c(F)c1F)c1c(F)c(F)c(F)c(F)c1F,inactive: > 76.9 µM
17,COc1ccc(CN2C(=O)c3cccnc3C2Nc2cc(Cl)c(OC)cc2OC)cc1 (stereo not given),inactive: > 76.9 µM
18,COc1ccccc1-n1c(SCC(=O)N2CCCCC2)nnc1-c1ccccc1O,inactive: > 76.9 µM
19,CCCS(=O)(=O)N1CCN(C(=O)c2cccs2)CC1,inactive: > 76.9 µM
20,CN(Cc1cc2ccccc2[nH]c1=O)S(C)(=O)=O,inactive: > 76.9 µM
21,CN(C)S(=O)(=O)N1CCN(S(=O)(=O)c2ccccc2)CC1,inactive: > 76.9 µM
